# Test results published in ChEMBL document CHEMBL5606458, “ASAP - ZIKV NS2B-NS3 protease fluorescence single point” (2024).
# Among all 2,700 compounds or so, about 160 (5.9%) showed an effect of 50% or more. Some of the results follow.
# Biological target: Nonstructural protein 3 (Zika virus) (UniProt A0A024AXB9)
# [1] = PRVABC59, Concentration 50.0 uM, Number of replicates 1.0
# [2] = PRVABC59, Concentration 15.0 uM, Number of replicates 1.0
# [3] = PRVABC59, Concentration 10.0 uM, Number of replicates 1.0
# UniProt A0A024AXB9, sequence (A0A024AXB9 as listed by the source): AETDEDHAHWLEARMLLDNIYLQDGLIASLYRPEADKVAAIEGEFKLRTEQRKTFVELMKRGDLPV
compound,measurement,setting,value
Cc1cc(Br)c(NC(=O)C2CCN(c3ccc(C=O)cc3)CC2)c([N+](=O)[O-])c1,inhibition,[1],23.8%
COc1ccccc1OCCn1cc(C2CCNCC2)c(C)n1,inhibition,"PRVABC59, Concentration 49.5 uM, Number of replicates 2.0, Standard deviation 3.6020232568569774 %",-1.12%
same,inhibition,"PRVABC59, Concentration 99.01 uM, Number of replicates 2.0, Standard deviation 3.6538062236366144 %",-0.198%
same,inhibition,"PRVABC59, Concentration 198.0 uM, Number of replicates 2.0, Standard deviation 5.317075123342042 %",1.08%
Cc1nccn1-c1ccc(NC(=O)c2cc(Cl)ccc2NS(=O)(=O)c2ccc(Oc3ccccc3Cl)cc2)cc1,inhibition,[2],43.8%
N#Cc1c(Cl)cccc1NC(=O)c1cc(Cl)ccc1NS(=O)(=O)c1ccc(Oc2ccccc2Cl)cc1,inhibition,[2],22.8%
O=Cc1ccc(N2CCC(C(=O)NCc3ccc(F)cc3C(F)(F)F)CC2)cc1,inhibition,[3],25.3%
Cc1cc(S(=O)(=O)NCCNC(=O)c2ccc(O)c(NC(=O)c3ccncc3F)c2C)c(C)s1,inhibition,"PRVABC59, Concentration 49.5 uM, Number of replicates 2.0, Standard deviation 1.3575786503928842 %",-0.106%
same,inhibition,"PRVABC59, Concentration 99.01 uM, Number of replicates 2.0, Standard deviation 1.9146004618852894 %",0.603%
same,inhibition,"PRVABC59, Concentration 198.0 uM, Number of replicates 2.0, Standard deviation 1.9819612621227651 %",1.47%
COc1cccc(-c2ccccc2C(=O)Nc2cnn(C)c2)c1F,inhibition,"PRVABC59, Concentration 49.5 uM, Number of replicates 2.0, Standard deviation 0.655169978409846 %",-2.02%
same,inhibition,"PRVABC59, Concentration 99.01 uM, Number of replicates 2.0, Standard deviation 0.33643856693736396 %",-2.27%
same,inhibition,"PRVABC59, Concentration 198.0 uM, Number of replicates 2.0, Standard deviation 0.6973950185443509 %",-0.464%
O=C(NCc1cc(C(F)(F)F)ccc1C(F)(F)F)c1cc(Cl)ccc1NS(=O)(=O)c1ccc(Oc2ccccc2Cl)cc1,inhibition,[2],31.9%
Cc1cc(CO)c2cccc(C[C@H](NC(=O)c3nc(N)n[nH]3)C(=O)O)c2n1,inhibition,"PRVABC59, Concentration 49.95 uM, Number of replicates 2.0, Standard deviation 1.7513324927150802 %",-1.22%
same,inhibition,"PRVABC59, Concentration 99.9 uM, Number of replicates 2.0, Standard deviation 0.7426854648255038 %",4.65%
CC[C@H]1c2cccn2CCN1C(=O)c1cc(Cl)ccc1NS(=O)(=O)c1ccc(Oc2ccccc2Cl)cc1,inhibition,[2],16.5%
Cn1cc(NC(=O)c2ccccc2C(F)(F)F)c(-c2ccc3cn[nH]c3c2)n1,inhibition,"PRVABC59, Concentration 49.5 uM, Number of replicates 2.0, Standard deviation 2.892317195229066 %",0.121%
same,inhibition,"PRVABC59, Concentration 99.01 uM, Number of replicates 2.0, Standard deviation 1.6799902430178184 %",1.23%
same,inhibition,"PRVABC59, Concentration 198.0 uM, Number of replicates 2.0, Standard deviation 2.235789830147722 %",-1.51%
Cn1cc(NS(=O)(=O)c2ccc(Oc3ccccc3)cc2)cn1,inhibition,"PRVABC59, Concentration 49.5 uM, Number of replicates 2.0, Standard deviation 0.025441439341419052 %",1.71%
same,inhibition,"PRVABC59, Concentration 99.01 uM, Number of replicates 2.0, Standard deviation 1.5264829887372622 %",5.19%
same,inhibition,"PRVABC59, Concentration 198.0 uM, Number of replicates 2.0, Standard deviation 1.5900859548880821 %",9.41%
O=C(NCCCN1CCS(=O)(=O)CC1)c1cc(Cl)ccc1NS(=O)(=O)c1ccc(Oc2ccccc2Cl)cc1,inhibition,[2],-0.607%
O=Cc1ccc(N2CCC(C(=O)N3CCN(c4ccc(O)cc4)CC3)CC2)cc1,inhibition,[1],37%
OB1CCc2ccc(N3CC[C@@H](O)C3)cc2O1,inhibition,"PRVABC59, Concentration 49.5 uM, Number of replicates 2.0, Standard deviation 2.057854186079089 %",-1.96%
same,inhibition,"PRVABC59, Concentration 99.01 uM, Number of replicates 2.0, Standard deviation 0.9026496136637511 %",-4.87%
O=C(c1cc(Cl)ccc1NS(=O)(=O)c1ccc(Oc2ccccc2Cl)cc1)N(Cc1ccccc1)[C@H]1CCS(=O)(=O)C1,inhibition,[2],18.6%
Cn1ccnc1[C@@H](O)C1CCN(C(=O)C2CCN(c3ccc(C=O)cc3)CC2)CC1,inhibition,[1],25.2%
c1ccn2c(CNCC3CCOCC3)nnc2c1,inhibition,"PRVABC59, Concentration 49.5 uM, Number of replicates 2.0, Standard deviation 1.8796463523944162 %",-1.69%
same,inhibition,"PRVABC59, Concentration 99.01 uM, Number of replicates 2.0, Standard deviation 2.0631141970669455 %",-2.09%
same,inhibition,"PRVABC59, Concentration 198.0 uM, Number of replicates 2.0, Standard deviation 1.9030296768293513 %",-4.01%
COc1ccc(CN(C)C(=O)c2cc(Cl)ccc2NS(=O)(=O)c2ccc(Oc3ccccc3Cl)cc2)c(OC)c1,inhibition,[2],10.2%
Cc1nn(CC(=O)Nc2ccc(F)cc2)cc1C1CCNCC1,inhibition,"PRVABC59, Concentration 49.5 uM, Number of replicates 2.0, Standard deviation 0.8989522392312843 %",-1.55%
same,inhibition,"PRVABC59, Concentration 99.01 uM, Number of replicates 2.0, Standard deviation 0.7622452693103791 %",0.347%
same,inhibition,"PRVABC59, Concentration 198.0 uM, Number of replicates 2.0, Standard deviation 0.8513118861917833 %",3.02%
C[C@]12CC3CC(NC(=O)C4CCN(c5ccc(C=O)cc5)CC4)(C1)C[C@](C)(C3)C2,inhibition,[1],29.3%
CNC(=O)[C@@H](C)CNS(=O)(=O)c1ccc(Oc2ccccc2Cl)cc1,inhibition,"PRVABC59, Concentration 49.5 uM, Number of replicates 2.0, Standard deviation 1.6230518289473026 %",-1.63%
same,inhibition,"PRVABC59, Concentration 99.01 uM, Number of replicates 2.0, Standard deviation 0.17641861567168832 %",2.05%
same,inhibition,"PRVABC59, Concentration 198.0 uM, Number of replicates 2.0, Standard deviation 0.3217045344601375 %",6.39%
O=C(CNC(=O)c1cc(Cl)ccc1NS(=O)(=O)c1ccc(Oc2ccccc2Cl)cc1)NCC(F)(F)F,inhibition,[2],-2.31%
CN1CCN(Cc2cccc(CNC(=O)C3CCN(c4ccc(C=O)cc4)CC3)c2)CC1,inhibition,[3],20.2%
Cc1cnccc1NC(=O)c1csc(-c2ccco2)n1,inhibition,"PRVABC59, Concentration 49.5 uM, Number of replicates 2.0, Standard deviation 1.7557463767431223 %",-2.24%
same,inhibition,"PRVABC59, Concentration 99.01 uM, Number of replicates 2.0, Standard deviation 0.7246370463282292 %",-1.2%
same,inhibition,"PRVABC59, Concentration 198.0 uM, Number of replicates 2.0, Standard deviation 0.8703816598057346 %",0.479%
O=Cc1ccc(N2CCC(C(=O)Nc3ccc(Cl)c(Cl)c3)CC2)cc1,inhibition,[1],22.8%
Cc1ncc(CO)c(CNC(=O)c2cc(Cl)ccc2NS(=O)(=O)c2ccc(Oc3ccccc3Cl)cc2)c1O,inhibition,[2],3.51%
O=Cc1ccc(N2CCC(C(=O)N3CCN(CC4CCCCC4)CC3)CC2)cc1,inhibition,[1],18.8%
CCCN(C[C@H](O)COc1ccccc1C(=O)CCc1ccccc1)C(=O)c1cc(Cl)ccc1NS(=O)(=O)c1ccc(Oc2ccccc2Cl)cc1,inhibition,[2],18.5%
COc1cc(Cl)c(C)cc1NC(=O)c1cc(Cl)ccc1NS(=O)(=O)c1ccc(Oc2ccccc2Cl)cc1,inhibition,[2],22.4%
O=C(c1cc(Cl)ccc1NS(=O)(=O)c1ccc(Oc2ccccc2Cl)cc1)N(Cc1ccccn1)Cc1ccccn1,inhibition,[2],19.2%
C[C@@H](CCNC(=O)C1CCN(c2ccc(C=O)cc2)CC1)N1CCOCC1,inhibition,[1],20.2%
CC1(C)[C@H]2CC[C@]1(C)[C@H](NC(=O)C1CCN(c3ccc(C=O)cc3)CC1)C2,inhibition,[1],-4.03%
CNC(=O)c1nc(C)c(C)c(N2CC[C@@H](NC(=O)[C@H]3CCCc4[nH]cnc43)C2)n1,inhibition,"PRVABC59, Concentration 49.5 uM, Number of replicates 2.0, Standard deviation 3.6106463334749126 %",1.16%
same,inhibition,"PRVABC59, Concentration 99.01 uM, Number of replicates 2.0, Standard deviation 0.9072077110365072 %",-0.124%
same,inhibition,"PRVABC59, Concentration 198.0 uM, Number of replicates 2.0, Standard deviation 0.929433261542848 %",0.354%
Cc1cccc(C)c1NC(=O)CN1CCN(C(=O)C2CCN(c3ccc(C=O)cc3)CC2)CC1,inhibition,[1],19.9%
NCc1cccc(NC(=O)[C@@H](NC(=O)OCc2ccccc2)c2ccccc2)c1,inhibition,"PRVABC59, Concentration 49.5 uM, Number of replicates 2.0, Standard deviation 1.7037965084433824 %",2.16%
same,inhibition,"PRVABC59, Concentration 99.01 uM, Number of replicates 2.0, Standard deviation 2.2842108323836983 %",4.7%
same,inhibition,"PRVABC59, Concentration 198.0 uM, Number of replicates 2.0, Standard deviation 0.6006977898141231 %",10.7%
O=C(NC1CCN(CC2CCOCC2)CC1)c1cc(Cl)ccc1NS(=O)(=O)c1ccc(Oc2ccccc2Cl)cc1,inhibition,[2],-6.87%
O=C(NCCc1nnc[nH]1)[C@@]1(c2ccc(F)cc2)CCCNC1,inhibition,"PRVABC59, Concentration 50.0 uM, Number of replicates 2.0, Standard deviation 2.5634207646858784 %",-0.912%
same,inhibition,"PRVABC59, Concentration 100.0 uM, Number of replicates 2.0, Standard deviation 2.4352497117001874 %",-0.194%
same,inhibition,"PRVABC59, Concentration 200.0 uM, Number of replicates 2.0, Standard deviation 1.6405892590532312 %",0.129%
C[C@@H]1CN(C2CCN(C(=O)c3cc(Cl)ccc3NS(=O)(=O)c3ccc(Oc4ccccc4Cl)cc3)CC2)C[C@H](C)O1,inhibition,[2],-1.5%
